Experimental data: paper PMC4336329 (PLoS ONE, 2015)
About 2,200 (0.71%) of roughly 310,000 compounds showed an effect of 50% or more. The effect is printed as a negative number. The list shows a part of the results.

What follows are molecules tested against human ether-à-go-go-related gene (hERG) potassium channel (human, UniProt Q12809) (assay: primary screen, population patch clamp on CHO cells stably expressing hERG).
Chain of human ether-à-go-go-related gene (hERG) potassium channel (Q12809 whole entry, looked up): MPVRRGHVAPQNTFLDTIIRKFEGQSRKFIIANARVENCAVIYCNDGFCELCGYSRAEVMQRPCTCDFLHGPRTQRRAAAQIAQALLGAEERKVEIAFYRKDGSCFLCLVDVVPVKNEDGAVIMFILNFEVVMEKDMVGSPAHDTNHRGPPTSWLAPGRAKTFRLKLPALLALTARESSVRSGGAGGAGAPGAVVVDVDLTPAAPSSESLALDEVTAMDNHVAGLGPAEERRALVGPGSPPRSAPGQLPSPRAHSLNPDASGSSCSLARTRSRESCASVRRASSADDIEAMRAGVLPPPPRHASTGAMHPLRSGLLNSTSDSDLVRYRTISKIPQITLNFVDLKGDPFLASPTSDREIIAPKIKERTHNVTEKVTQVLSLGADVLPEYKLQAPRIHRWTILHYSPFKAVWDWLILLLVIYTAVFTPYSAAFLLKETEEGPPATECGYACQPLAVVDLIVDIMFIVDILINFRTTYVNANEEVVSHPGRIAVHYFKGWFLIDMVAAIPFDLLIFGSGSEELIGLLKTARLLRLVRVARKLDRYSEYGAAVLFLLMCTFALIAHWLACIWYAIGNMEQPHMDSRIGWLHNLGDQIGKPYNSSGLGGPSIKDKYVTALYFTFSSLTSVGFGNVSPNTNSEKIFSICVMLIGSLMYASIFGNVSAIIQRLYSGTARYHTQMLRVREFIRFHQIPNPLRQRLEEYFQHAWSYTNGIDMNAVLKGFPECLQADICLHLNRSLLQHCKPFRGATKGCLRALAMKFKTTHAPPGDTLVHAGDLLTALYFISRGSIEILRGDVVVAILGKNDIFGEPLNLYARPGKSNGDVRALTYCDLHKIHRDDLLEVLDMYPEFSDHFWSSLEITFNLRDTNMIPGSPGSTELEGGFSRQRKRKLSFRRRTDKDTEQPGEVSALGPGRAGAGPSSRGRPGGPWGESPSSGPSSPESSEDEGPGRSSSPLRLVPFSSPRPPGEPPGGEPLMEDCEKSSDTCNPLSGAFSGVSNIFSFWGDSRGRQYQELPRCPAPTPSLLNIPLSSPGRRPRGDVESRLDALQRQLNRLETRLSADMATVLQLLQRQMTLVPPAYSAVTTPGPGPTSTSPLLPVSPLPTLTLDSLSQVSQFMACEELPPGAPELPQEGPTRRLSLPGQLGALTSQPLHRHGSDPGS

In order of rising “hERG current change (%, negative = inhibition) at 1uM” value:
1. O=C(COc1ccc(Cl)cc1)Nc1ccc(Cc2ccncc2)cc1  -7.88%
2. COc1ccccc1N1CCN(C(=O)c2cc3c(s2)CCC3)CC1  -3.63%
3. CCN(CC)S(=O)(=O)c1cccc(C(=O)NC(C(=O)NC2=NCCS2)C(C)C)c1 (stereo not shown)  -3.28%
4. CCCNC(=O)C1CCN(S(=O)(=O)c2ccc(Br)cc2)CC1  1.4%
5. O=C(O)C1CCCCN1S(=O)(=O)c1ccc(Cl)s1 (stereo not shown)  2.32%
6. Cc1ccc(OCCNC(=O)CNC(=O)c2ccc(C)cc2)cc1  2.59%
7. O=C(CSc1nc(C2CCCCC2)n(-c2ccccc2)n1)NCC(F)(F)F  5.13%
8. COCCn1nnnc1C(c1cc2cc(OC)ccc2[nH]c1=O)N1CCC(Cc2ccccc2)CC1 (stereo not shown)  5.45%
9. O=C(Nc1cccc2ccccc12)N1CCc2ccccc2C1  5.49%
10. COc1ccc(C(CNC(=O)COc2cc(C)ccc2Cl)N2CCCCC2)cc1 (stereo not shown)  6.35%
11. Cc1cc(C(=O)NC2CCCc3c2cnn3-c2ccc(C)c(C)c2)nc(C)n1 (stereo not shown)  6.9%
12. OCCN1c2ccccc2CCc2ccccc21  8.03%
13. Cc1c(NC(=S)NC(=O)c2ccccc2)c(=O)n(-c2ccccc2)n1C  8.94%
14. O=C(NCCc1ccc(Cl)cc1)Nc1ccc(F)cc1  10.4%
15. Oc1ccc(C2=NNC(=NCc3ccc4c(c3)OCO4)SC2)c(O)c1  10.8%
16. O=c1c(Cl)c(N2CCNCC2)cnn1C12CC3CC(CC(C3)C1)C2  11.4%
17. COc1ccc(CCNC(=O)CN2CCN(c3ccccc3Cl)CC2)cc1  11.4%
18. CCOc1cc(N2CCOCC2)c(OCC)cc1NC(=O)COC(=O)CCOc1cc(C)ccc1C  11.7%
19. O=S(=O)(c1ccc2c(c1)OCCO2)N1CCNCC1  12%
20. COc1ccc(NS(=O)(=O)c2cc(NC(=O)c3cnc(C)cn3)ccc2N2CCCCC2)cc1  13.4%
21. Cc1cc(OC(=O)c2ccc(S(=O)(=O)N3CCCCC3)cc2)c([N+](=O)[O-])c(=O)[nH]1  16%
22. O=C(NC(=S)Nc1ccccc1)c1cccs1  16.6%
23. CCOc1ccc(NC(=O)c2cc(S(=O)(=O)N3CCOCC3)cn2C)cc1  17.3%
24. O=C1NN(c2ccccc2)C(=O)/C1=C/c1ccc(-c2ccc(C(=O)O)cc2)o1  19%
25. CC(C)CN1CC(C(=O)O)CC1=O (stereo not shown)  20.4%
